Reference: the supplement of paper PMC11417369
± gives the standard deviation of the averaged measurements. The list shows a part of the results.

test system: PfAP2-I AP2 domain 3 (GST-tagged); assay: gcPBM binding intensity (ln(normalized median fluorescence intensity)); higher = stronger DNA binding
Method in brief: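 GST-fused DNA-binding domains of P. falciparum, expressed in E. coli, were applied at about 25 μg on average for 1 h to an Agilent 4 × 180k array of primer-extended double-stranded 36-bp intergenic genomic probes and negative controls. Binding intensity is the highest Masliner-normalised natural-log median intensity across replicate spots of either probe orientation, measured with Alexa488 anti-GST antibody and a 488 nm scan.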

Sequence	gcPBM binding intensity (ln)
ATTCTATTATAATACACACCCAAATATTAAAAAGAT [CACACA_site2960]	8.69 ± 0.26
GATGTTGCAAAATTCTGTACATATAAATGTATACAT [XGTACX_site5009]	8.18 ± 0.49
TATTATATATATATATGTACATATATATGCTAAAAA [XGTACX_site5297]	7.89 ± 0.59
TAATGAATTTAAATTTTAAAATTAATAAAAAAAATA [TGCATGCA_negctrl_site15]	7.55 ± 0.59
CAAAATGTTTCTCATTGTACACAAAATAAATGTCCT [XGTACX_site6798]	7.76 ± 0.46
ATTAGTAAATTTATATGTACACATTGTTATTTTATA [XGTACX_site1177]	8.13 ± 0.23
ACATTTACAAGGAAAGTGCATATAAGAAAAATAAAA [GTGCAC_site9587]	10.2 ± 0.11
ATACATATGTATATTTGTACATATTAGACAATCTTA [XGTACX_site6706]	7.44 ± 0.41
GTAACATTTTAAATATATACATATAATGTATTTATA [GTGCAC_negctrl_site344]	7.48 ± 0.37
ATTAAACCGTGGGAGCACACACACACACACACACAT [TGCATGCA_negctrl_site72]	8.61 ± 0.35
TGTTGTATCAATTTTTGTACATAACACATATGTATA [XGTACX_site3666]	7.73 ± 0.45
ATTAATTAAAAGGGAACACATAGAAATTATAAAACA [GTGCAC_negctrl_site420]	7.93 ± 0.75
ATATATATATTATGGGGTACAAACATCAAAAGATTT [XGTACX_site3944]	8.88 ± 0.23
TGTGTAGGGGATATTCTACTTTAAAAATAAATATAT [CACACA_negctrl_site207]	8.16 ± 0.28
TATAAAAGATTGGAATGTACATAAGAAAAAAATATA [XGTACX_site5028]	8.2 ± 0.4
GGCCCAACTTCTTCTGACGAAAACGTAAATTGTGTG [XGTACX_negctrl_site533]	7.61 ± 0.86
AATCATATTAGTATGGTGCAACATATATAAATATAT	10.2 ± 0.31
TTCAAGATTTATTATACACACATATTAATATTTATA [CACACA_site6413]	7.96 ± 0.42
ACACATATATTAAATGTGCACTGAAATATGCATATA [GTGCAC_site9936]	10.065 ± 0.007
ACTTGTAAGAGACACACACACACACGGATATAAATA [CACACA_site6517]	7.98 ± 0.58
TTATTTTCCCTTTGTGCATGCAGTTTACTTTTTGTG [TGCATGCA_site993]	9.26 ± 0.77
ATATATGTATATTTATGTACGTATTCCTGTATAGTC [XGTACX_site5763]	8.04 ± 0.36
CAAAATAAAAATAACACACACATTTATTTATATACA [CACACA_site6679]	7.58 ± 0.36
ACACAAGCACACAAATGTACATATATATATATATAT [XGTACX_site5146]	9.55 ± 0.73
